The values that follow come from ChEMBL document CHEMBL4888484, “Replenishing the malaria drug discovery pipeline: Screening and hit evaluation of the MMV Hit Generation Library 1 (HGL1) against asexual blood stage Plasmodium falciparum ,using a nano luciferase reporter read-out” (2022).

The structures appear in SMILES notation. Hit rate of the full screen: of about 150,000 compounds, about 540 (0.36%) showed an effect of 50% or more. Some of the results follow.

This assay relates to Plasmodium falciparum. Description: Primary screen in NF54 nanoGlo assay, in single point, at 2uM, 72h; a lower Z score goes with more inhibition. It counts as functional, Erythrocyte. Particulars: timepoint 72 hour.
As for `C[C@H](NC(=O)N1CC(C(C)(C)O)C1)c1ccc(Cl)c2ccccc12`, the “% Inhibition” value is listed as -6% and the Z score was 0.96.
On the same counts, the results for `CCC(CC)C(=O)Nc1ccccc1NC(=O)C(CC)CC` are -1% and 0.18.
As to `CCn1ccc(CNC(=O)N[C@@](C)(COC)c2ccccc2)n1`, the “% Inhibition” value was -3% and the Z score turned out to be 0.43.
For `Cc1nn(-c2ccccc2)c(Oc2ccc(F)cc2F)c1CN(CC1CC1)C[C@H](O)COC(C)C` the same measures were 3% and -0.41.
In the case of `Cc1nccn1CC1(CNC(=O)Nc2ccc(C#N)nc2)CC1`, the “% Inhibition” value is recorded as -5% and the Z score is 0.74.
`Cn1cc(OCC(=O)N2CCC[C@H]2COc2ccccc2)cn1`: the “% Inhibition” value is reported as -7% and the Z score was found to be 0.98.
For `CC(=O)N1CC(C)(C)c2cc(S(=O)(=O)N[C@@H](C)Cc3ccco3)ccc21` the same measures were -13% and 1.58.
On the same counts, the results for `Cc1ccc2nc(-c3ccc(Cl)cc3OS(=O)(=O)c3ccccc3OC(F)(F)F)oc2c1` are -7% and 1.18.
As for `Cc1nc(CN2CC(=O)Nc3ccccc32)sc1C`, the “% Inhibition” value was 0% and the Z score was 0.
In the case of `Cc1cc(C(=O)Nc2nnc(-c3ccc(S(C)(=O)=O)cc3)o2)no1`, the “% Inhibition” value worked out at 0% and the Z score is on record as 0.04.
For `Cc1ccc(-n2nc(C(=O)NCCc3ccccn3)c(=O)n(Cc3ccccc3)c2=O)cc1` the same measures were -25% and 2.23.
For `O=C(Nc1cccc2c1CCCC2)N1CCS(=O)(=O)CC1` the same measures were -4% and 0.65.
`CN(CC1(CO)CCCC1)c1ncc(F)cn1`: the “% Inhibition” value is on record as -4% and the Z score was 0.84.
Turning to `O=C(O)c1cccc(C(=O)N2CCC[C@H]2c2cccs2)n1`, the “% Inhibition” value is listed as -8% and the Z score is 1.19.
On the same counts, the results for `O=C(NCC[C@H]1CCCN1)c1cc(-c2ccco2)nc2c(Cl)cccc12` are -4% and 0.71.
Turning to `O=C(Nc1cccc(S(=O)(=O)N2CCCCC2)c1)c1n[nH]c2ccccc12`, the “% Inhibition” value is listed as -11% and the Z score is 1.95.
For `CN1C(=O)Cc2cc(Br)cnc21` the same measures were -1% and 0.14.
Take `O=C(Cc1noc(-c2nn[nH]c2-c2ccccc2)n1)NC1CCCCC1`: the “% Inhibition” value is listed as -17% and the Z score stood at 2.17.
For `COC(=O)N(C)CC(=O)Nc1cc(OC)cc(OC)c1` the same measures were -4% and 0.61.
On the same counts, the results for `CCCn1cnnc1CN(C)CCc1cccc(C)n1` are -13% and 1.68.
On the same counts, the results for `CCCOc1ccc(CN[C@@H](C)c2ccnn2C)cn1` are -3% and 0.61.
As for `Cn1ncc2c(N3CCc4n[nH]cc4C3)nc(CCc3ccccc3)nc21`, the “% Inhibition” value is on record as -1% and the Z score was determined as 0.14.
For `Cc1csc(NC(=O)c2cccnc2C2CC2)n1` the same measures were -4% and 0.41.
On the same counts, the results for `CCN(CC(=O)N1CCN(c2ccc(-c3cccc(OC)c3)nn2)CC1)S(=O)(=O)c1ccc(Cl)cc1` are -8% and 1.48.
With `CCOC(=O)N1CCN([C@H]2CCCN(C(=O)c3ccc4[nH]c(C)c(C)c4c3)C2)CC1`, the “% Inhibition” value was -15% and the Z score is reported as 2.7.
For `C[C@@H](Cc1cc2ccccc2o1)NC(=O)C1CCOCC1` the same measures were -14% and 2.34.
Turning to `CCCn1nc(C(=O)N2CCCc3c(Cl)ccc(F)c32)ccc1=O`, the “% Inhibition” value is -2% and the Z score was 0.21.
For `CN(Cc1csc(-c2ccccc2)n1)C(=O)Cn1nnnc1CN1CCOCC1` the same measures were -6% and 0.92.
For `Cc1nnsc1CNC(=O)c1cc(N)[nH]n1` the same measures were -15% and 1.3.
For the molecule `COc1cccc(NC(=O)N2CCS(=O)(=O)CC2)n1`, the “% Inhibition” value is -14% and the Z score is given as 2.62.
For the molecule `COc1ccc(CC(=O)N2CCC3(CC2)C(=O)NCCCN3C)cc1OC`, the “% Inhibition” value is -1% and the Z score was determined as 0.08.
As for `CC1CCN(c2nc3c(c(N4CCCC4)n2)CN(C(=O)NCc2ccccc2)CC3)CC1`, the “% Inhibition” value worked out at 3% and the Z score is given as -0.44.
On the same counts, the results for `C[C@@H](C(=O)N1CCC(O)(c2ccnn2C)CC1)c1ccccc1` are 0% and -0.09.
On the same counts, the results for `Cc1c(C)n(C[C@@H](O)Cn2cnc3ccccc32)c2ccc(F)cc12` are -1% and 0.11.
With `CC(C)N1CCC(C(=O)N2CCCC[C@H]2c2nc3ccccc3[nH]2)CC1`, the “% Inhibition” value is -4% and the Z score is given as 0.41.
As to `N#CC1CCN(C(=O)N[C@H]2CCCC[C@@H]2c2ccccc2)CC1`, the “% Inhibition” value was 0% and the Z score is -0.02.
On the same counts, the results for `Cn1nc2n(c1=O)CCN(C(=O)Cc1ccccc1O)C2` are -2% and 0.38.
Consider `COCCN(CCOC)S(=O)(=O)N(C[C@@H](O)CC(C)(C)C)C1CCN(C)CC1`, for which the “% Inhibition” value is on record as -5% and the Z score amounted to 0.72.
On the same counts, the results for `COc1ncccc1CNC(=O)N1CCC[C@H]1c1ccc(C)o1` are -7% and 1.17.
On the same counts, the results for `Cn1cc(Cl)cc1C(=O)N1CCN(Cc2ccccc2F)C(=O)C1` are -2% and 0.24.
For `O=C(NCc1csc(N2CCOCC2)n1)N1CC(Oc2ccccc2F)C1` the same measures were -10% and 1.21.
Consider `CN(C(=O)[C@@H]1COCCO1)C1CCC(CO)CC1` (some centres not stated), for which the “% Inhibition” value is listed as -6% and the Z score was 1.
Take `O=C(C1CCCCN1C(=O)C1Cc2ccccc2O1)N1CCOCC1` (configuration not stated): the “% Inhibition” value was -14% and the Z score is 1.88.
Take `Cc1scc(C(=O)N2CC(C(=O)N(C)C)CCC2C(=O)O)c1C` (configuration not stated): the “% Inhibition” value is reported as -1% and the Z score worked out at 0.24.
On the same counts, the results for `O=S(=O)(c1ccccc1)N1CC[C@H](c2ccc3c(c2)CCO3)C1` are -15% and 1.78.
On the same counts, the results for `CCc1ccc(NCn2nc(C)cc2C)cc1` are -3% and 0.41.
For `CCOCC(=O)N[C@H]1CCN(C2CCCCCC2)C1` the same measures were -2% and 0.28.
With `CC(NCC1(C(O)C(C)C)CC1)c1cncc(F)c1` (configuration not stated), the “% Inhibition” value is -10% and the Z score is recorded as 1.43.
Regarding `C[C@H](O)C#Cc1ncc(C(F)(F)F)cc1Cl`, the “% Inhibition” value is on record as -5% and the Z score came out at 0.87.
For `COC(=O)[C@@H](CC(C)C)NC(=O)NCc1ccccc1` the same measures were 33% and -3.76.
On to `Cc1cncnc1N(C)C[C@H]1CCc2nc(C(F)(F)F)cn2C1`, for which the “% Inhibition” value is -8% and the Z score came to 1.67.
On the same counts, the results for `CCCn1ncc(C(=O)N2CCC[C@H](c3nc(-c4cccnc4)no3)C2)c1C` are -10% and 1.32.
Take `CCc1nnc(CN2C[C@@H]3CC[C@H]2CN(C(=O)c2ccccn2)C3)o1`: the “% Inhibition” value is listed as -5% and the Z score came out at 0.77.
Turning to `CC(C)c1nsc(N2CCN([C@H]3CCS(=O)(=O)C3)CC2)n1`, the “% Inhibition” value is -2% and the Z score is on record as 0.28.
For `CC(C)n1[nH]c(=O)c2c1NC(=O)C[C@@H]2c1ccc(C#N)cc1` the same measures were 31% and -3.47.
For `CN(C(=O)c1ccncc1F)c1ccc(N2CCOCC2)nc1`, the “% Inhibition” value is -1% and the Z score is 0.22.
For the molecule `CCN(CC(=O)NC(C)(C#N)C1CC1)C(C)c1ccc(F)cc1` (configuration not stated), the “% Inhibition” value is on record as -13% and the Z score was determined as 2.42.
For `CC(C)c1ccc(NC(=O)CCS(=O)(=O)c2ccc3c(c2)CC(=O)N3C)cc1`, the “% Inhibition” value was -7% and the Z score is given as 0.89.
For `COc1cc(OC)c(NC(C)=O)cc1Br` the same measures were -9% and 1.7.
Consider `COc1ccc2c(c1)[C@@H](N(Cc1ccccc1)Cc1nccn1Cc1ccccc1)CCO2`, for which the “% Inhibition” value worked out at 0% and the Z score turned out to be 0.01.
Regarding `Clc1ccc(CN(Cc2cnoc2C2CC2)C2CC2)cc1`, the “% Inhibition” value is listed as -11% and the Z score was 1.4.
For `c1ccc(-n2nccc2-c2nc3c(cnn3CC3CC3)[nH]2)cc1` the same measures were -18% and 2.16.
On the same counts, the results for `Cc1[nH]c(-c2ccc(F)cc2)cc1C(=O)N1CC(C)CC(C)C1` (configuration not stated) are -7% and 1.38.
Consider `O=C(Cn1ccnc1)Nc1ccc2[nH]c(-c3cccs3)nc2c1`, for which the “% Inhibition” value is -5% and the Z score came out at 0.65.
As to `CCc1ccc(Nc2ncnc3c(-c4ccc(C)cc4)noc23)cc1`, the “% Inhibition” value is listed as -1% and the Z score was found to be 0.15.
`Cc1ccoc1C(=O)N[C@H](c1cncc(Br)c1)C1CC1`: the “% Inhibition” value amounted to 5% and the Z score was -0.47.
For `COc1ccc(Cl)cc1NC(=O)Cn1c(N2CCN(c3ccccc3)CC2)nc(C)cc1=O` the same measures were -11% and 1.75.
For `O=C(Cc1cccnc1)NC1Cc2ccccc2C1` the same measures were -2% and 0.33.
For `C1=CC2CC1CC2CN1CCN(c2ncccn2)CC1` (configuration not stated) the same measures were -10% and 1.4.
Regarding `O=C(O)C1CC1C(=O)N(CC1CCC1)CC(F)(F)F` (configuration not stated), the “% Inhibition” value is recorded as -11% and the Z score worked out at 1.25.
For the molecule `CCCc1cnc(C)nc1-c1ccc(C(=O)N[C@@H](C)c2nc(CC)no2)cc1`, the “% Inhibition” value is recorded as -8% and the Z score is listed as 1.21.
For `C[C@H](OC(=O)c1c(Cl)ccc(Cl)c1Cl)C(N)=O` the same measures were -10% and 1.42.
On to `CN(C)CC1(O)CCC2(CCN(S(=O)(=O)c3cccc4nsnc34)CC2)CC1`, for which the “% Inhibition” value is -19% and the Z score was determined as 2.73.
Turning to `COCCNc1nc(-c2cc(F)ccc2F)c2c(N)n(-c3cccc(C)c3)nc2n1`, the “% Inhibition” value was determined as 5% and the Z score was -0.72.
Turning to `COc1ccc(OC)c(C2CC2C(=O)N2CCc3cnccc32)c1` (configuration not stated), the “% Inhibition” value is listed as -1% and the Z score was determined as 0.14.
Consider `CC(C)N(C)Cc1ncnn1CC1CCCCC1`, for which the “% Inhibition” value is recorded as -8% and the Z score came out at 0.77.
Take `O=S(=O)(c1cccs1)N1CCOC2(CCOCC2)C1`: the “% Inhibition” value is -8% and the Z score came out at 1.46.
`COC(=O)c1ccc(S(=O)(=O)N2CC(N(C)C)C2)cc1OC`: the “% Inhibition” value is on record as 6% and the Z score is -0.51.
As for `Cc1cccc(N2CC[C@@H](C(=O)N3CCN(Cc4ccccc4)CC3)C2=O)c1`, the “% Inhibition” value is listed as -16% and the Z score came to 1.67.
On to `CC(=O)N1CCC([C@H]2CCN(Cc3ccc(C)cc3C)C2)CC1`, for which the “% Inhibition” value is recorded as -9% and the Z score amounted to 1.06.
On the same counts, the results for `Cc1cc(Cl)ccc1C=Cc1nc(C)c(CCC(=O)O)c(=O)[nH]1` are 6% and -0.78.
For `Cc1nn(-c2ccc(F)cc2)c2nc(N3CCCN(C(=O)c4ccccc4F)CC3)sc12` the same measures were -16% and 1.84.
For the molecule `CN1CC[C@H](C(=O)N2CCN(c3c(F)cccc3F)CC2)CC1=O`, the “% Inhibition” value is given as -6% and the Z score is listed as 0.82.
For `C[C@H](NC(=O)Cn1ccc(=O)[nH]c1=O)c1nc(C(C)(C)C)cs1` the same measures were -17% and 2.61.
For `Cc1nc(C)c(COCc2[nH]nnc2-c2ccccc2)s1`, the “% Inhibition” value is -9% and the Z score worked out at 1.45.
On to `CCCS(=O)(=O)N1CCN(c2cnnc(N3CCCC3)c2)CC1`, for which the “% Inhibition” value is given as -9% and the Z score came out at 1.62.

Usually % Inhibition stands for the change of the read-out against control, counted positive when it falls.
